Some of the results follow.

For this assay, the target named is T1, MBP-FoxP1dN (Mus musculus, UniProt P58462 326-579).
T1 sequence: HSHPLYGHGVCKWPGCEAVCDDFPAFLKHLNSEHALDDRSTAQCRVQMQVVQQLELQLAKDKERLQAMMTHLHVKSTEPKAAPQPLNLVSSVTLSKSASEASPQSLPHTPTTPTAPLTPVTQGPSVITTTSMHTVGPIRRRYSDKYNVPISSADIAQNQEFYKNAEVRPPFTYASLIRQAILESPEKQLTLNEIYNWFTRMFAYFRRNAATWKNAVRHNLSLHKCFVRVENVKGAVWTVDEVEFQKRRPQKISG
Briefly: PD-seq (MBP pull-down with sequencing); 20 mM Tris-HCl pH 7.5, 100 mM NaCl, 1.5 mM MgCl2, 0.4 uM protein, 0.1 uM dsDNA library, 30 min, room temperature, amylose pull-down; high values mean tight binding. The settings on record: protein: recombinant; tags: His6-MBP; chain copies: 2; dsDNA, one strand shown. In short, it runs like this: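 A degenerate double-stranded DNA library, filled in with Klenow, was added at 0.1 µM to 0.4 µM His6-MBP-tagged mouse FoxP3 or FoxP1 fragment lacking the N-terminus, expressed in E. coli. Incubation lasted 30 min at room temperature in Tris pH 7.5 buffer with NaCl and MgCl2, after which complexes were collected on amylose resin, washed three times, digested with proteinase K to free the DNA, barcoded by PCR and sequenced by Illumina. Binding is the pooled-replicate reads-per-million enrichment of pull-down over input.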
As for “GATGATTGTTCTCCCAGCTGATGAATTTCACGAGTCGAGTAAACAAATTTTCCTAATCTTTCTGTTCAAGCGCCATCTAC”, the binding signal was 0.803 RPM ratio (pull-down/input).
The value for “GATGATTGTTCTCCCAGCTGATGAATTGTTTTAGTCGAGTAAACAAATTTTCCTAATCTTTCTGTTCAAGCGCCATCTAC” was 1.44 RPM ratio (pull-down/input); that for “GATGATTGTTCTCCCAGCTGATGAATTAAGCCGGTCGAGTAAACAAATTTTCCTAATCTTTCTGTTCAAGCGCCATCTAC” was 0.799 RPM ratio (pull-down/input); that for “GATGATTGTTCTCCCAGCTGATGAATTAGCCGCCTCGAGTAAACAAATTTTCCTAATCTTTCTGTTCAAGCGCCATCTAC” was 0.874 RPM ratio (pull-down/input).
Regarding “GATGATTGTTCTCCCAGCTGATGAATTACAGACTTCGAGTAAACAAATTTTCCTAATCTTTCTGTTCAAGCGCCATCTAC”, the binding signal was 0.973 RPM ratio (pull-down/input).
The value for “GATGATTGTTCTCCCAGCTGATGAATTTGACAGGTCGAGTAAACAAATTTTCCTAATCTTTCTGTTCAAGCGCCATCTAC” was 0.728 RPM ratio (pull-down/input); that for “GATGATTGTTCTCCCAGCTGATGAATTTGCATGATCGAGTAAACAAATTTTCCTAATCTTTCTGTTCAAGCGCCATCTAC” was 1.05 RPM ratio (pull-down/input).
The value for “GATGATTGTTCTCCCAGCTGATGAATTACCTGGCTCGAGTAAACAAATTTTCCTAATCTTTCTGTTCAAGCGCCATCTAC” was 0.828 RPM ratio (pull-down/input); that for “GATGATTGTTCTCCCAGCTGATGAATTGGGCGGGTCGAGTAAACAAATTTTCCTAATCTTTCTGTTCAAGCGCCATCTAC” was 0.785 RPM ratio (pull-down/input).
The value for “GATGATTGTTCTCCCAGCTGATGAATTCGATCGGTCGAGTAAACAAATTTTCCTAATCTTTCTGTTCAAGCGCCATCTAC” was 0.785 RPM ratio (pull-down/input); that for “GATGATTGTTCTCCCAGCTGATGAATTGTGTTAATCGAGTAAACAAATTTTCCTAATCTTTCTGTTCAAGCGCCATCTAC” was 1.27 RPM ratio (pull-down/input).
As for “GATGATTGTTCTCCCAGCTGATGAATTGTAATCATCGAGTAAACAAATTTTCCTAATCTTTCTGTTCAAGCGCCATCTAC”, the binding signal is 1.69 RPM ratio (pull-down/input).
In the case of “GATGATTGTTCTCCCAGCTGATGAATTTTTCATTTCGAGTAAACAAATTTTCCTAATCTTTCTGTTCAAGCGCCATCTAC” it was 0.989 RPM ratio (pull-down/input); in that of “GATGATTGTTCTCCCAGCTGATGAATTCTGAGCGTCGAGTAAACAAATTTTCCTAATCTTTCTGTTCAAGCGCCATCTAC”, 0.83 RPM ratio (pull-down/input); in that of “GATGATTGTTCTCCCAGCTGATGAATTCACAGAATCGAGTAAACAAATTTTCCTAATCTTTCTGTTCAAGCGCCATCTAC”, 0.984 RPM ratio (pull-down/input).
The value for “GATGATTGTTCTCCCAGCTGATGAATTCAGCCAATCGAGTAAACAAATTTTCCTAATCTTTCTGTTCAAGCGCCATCTAC” was 0.903 RPM ratio (pull-down/input); that for “GATGATTGTTCTCCCAGCTGATGAATTTCGCAGTTCGAGTAAACAAATTTTCCTAATCTTTCTGTTCAAGCGCCATCTAC” was 0.847 RPM ratio (pull-down/input); that for “GATGATTGTTCTCCCAGCTGATGAATTATGGGCCTCGAGTAAACAAATTTTCCTAATCTTTCTGTTCAAGCGCCATCTAC” was 0.904 RPM ratio (pull-down/input).
The value for “GATGATTGTTCTCCCAGCTGATGAATTCTCACCTTCGAGTAAACAAATTTTCCTAATCTTTCTGTTCAAGCGCCATCTAC” was 0.868 RPM ratio (pull-down/input); that for “GATGATTGTTCTCCCAGCTGATGAATTACTTTAGTCGAGTAAACAAATTTTCCTAATCTTTCTGTTCAAGCGCCATCTAC” was 0.998 RPM ratio (pull-down/input); that for “GATGATTGTTCTCCCAGCTGATGAATTGGGTAGGTCGAGTAAACAAATTTTCCTAATCTTTCTGTTCAAGCGCCATCTAC” was 0.774 RPM ratio (pull-down/input).
“GATGATTGTTCTCCCAGCTGATGAATTGAACGGCTCGAGTAAACAAATTTTCCTAATCTTTCTGTTCAAGCGCCATCTAC”: the binding signal was 0.829 RPM ratio (pull-down/input).
The value for “GATGATTGTTCTCCCAGCTGATGAATTTAACCGATCGAGTAAACAAATTTTCCTAATCTTTCTGTTCAAGCGCCATCTAC” was 0.833 RPM ratio (pull-down/input).
For “GATGATTGTTCTCCCAGCTGATGAATTTGAGCAATCGAGTAAACAAATTTTCCTAATCTTTCTGTTCAAGCGCCATCTAC”, the binding signal is 1.08 RPM ratio (pull-down/input).
The value for “GATGATTGTTCTCCCAGCTGATGAATTACTTAATTCGAGTAAACAAATTTTCCTAATCTTTCTGTTCAAGCGCCATCTAC” was 1.28 RPM ratio (pull-down/input); that for “GATGATTGTTCTCCCAGCTGATGAATTTACAGTTTCGAGTAAACAAATTTTCCTAATCTTTCTGTTCAAGCGCCATCTAC” was 1.31 RPM ratio (pull-down/input); that for “GATGATTGTTCTCCCAGCTGATGAATTAGCGAGCTCGAGTAAACAAATTTTCCTAATCTTTCTGTTCAAGCGCCATCTAC” was 0.774 RPM ratio (pull-down/input).
In the case of “GATGATTGTTCTCCCAGCTGATGAATTTTGATAGTCGAGTAAACAAATTTTCCTAATCTTTCTGTTCAAGCGCCATCTAC” it was 0.941 RPM ratio (pull-down/input).
The value for “GATGATTGTTCTCCCAGCTGATGAATTATTCTAATCGAGTAAACAAATTTTCCTAATCTTTCTGTTCAAGCGCCATCTAC” was 1.2 RPM ratio (pull-down/input); that for “GATGATTGTTCTCCCAGCTGATGAATTGTACTGATCGAGTAAACAAATTTTCCTAATCTTTCTGTTCAAGCGCCATCTAC” was 1.02 RPM ratio (pull-down/input); that for “GATGATTGTTCTCCCAGCTGATGAATTTCCTGCATCGAGTAAACAAATTTTCCTAATCTTTCTGTTCAAGCGCCATCTAC” was 1.05 RPM ratio (pull-down/input).
“GATGATTGTTCTCCCAGCTGATGAATTACCAGCGTCGAGTAAACAAATTTTCCTAATCTTTCTGTTCAAGCGCCATCTAC”: the binding signal was 1.01 RPM ratio (pull-down/input).
